Reference: PubChem BioAssay AID1963576 (National Center for Advancing Translational Sciences (NCATS), 2024)
The campaign covered roughly 46,000 compounds. About 60 (0.1%) were called active. Inconclusive results (about 3%) are left out. The call rests on the fitted dose curve; in most records, active means well fitted inhibition curve with a large enough effect; inconclusive means small, poorly fitted or top-dose-only effect; inactive means no such curve, though single readings can be large or run the other way. The list shows a part of the results.

Assay: Primary qHTS assay for Inhibitors of ovarian cancer metastasis using an organotypic tumor microenvironment (TME) model. Further: nearly all actives have a fitted effect of over 65% in size.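 On activity change, negative = inhibition: plate controls were DMSO wells for no effect and tomatine positive control wells for full effect.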
Details: SKOV3ip1-GFP adhesion/invasion on 3D omental model, fluorescence; series mostly up to 45.8 µM; activity change, negative = inhibition: at the top concentration
How it was run: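 Adhesion/invasion was scored as fixed GFP-labeled SKOV3ip1 cell counts (488/509 nm), normalized to DMSO and tomatine controls. Cancer cells in serum-free medium, with four compound doses (0.36-46 umol/L), sat 2 hr at RT then 16 hr at 37 C on a 48 hr fibroblast/mesothelial/ECM culture.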

Activity change, negative = inhibition, inactive:
CCc1ccc(S(=O)(=O)Nc2ccc3oc(C)c(C(=O)OCCOC)c3c2)cc1 -7.51%, COc1ccc(NC(=O)c2ccc(-c3nc(CSc4ccccc4)c(C)o3)cc2)c(OC)c1 -7.75%, CCOC(=O)c1[nH]c(C)c(C(=O)NCc2ccccc2Cl)c1C -21.8%, O=C(NCc1ccc2c(c1)CCN2C(=O)c1ccncc1)c1cccc(F)c1 0.502%, Cc1ccn2c(=O)c(NC(=O)c3cccc([N+](=O)[O-])c3C)c(C)nc2c1 -6.75%, Cc1nn(-c2ccc(N3CCCCC3)nn2)c(C)c1CCC(=O)Nc1cccc(F)c1 -4.97%, O=c1cc(-c2ccccc2)nc(SCc2nc(-c3cccc(C(F)(F)F)c3)no2)[nH]1 -3.34%, CCN(CCCNC(=O)CN1N=C(c2ccc(C)cc2)CCC1=O)c1ccccc1 -20.8%, Fc1ccc(-n2ncc3c(NCCCc4ccccc4)ncnc32)cc1 25%, CCOC(=O)C1CCCN(S(=O)(=O)c2cc(Br)cc3c2N(C(=O)CC)CC3)C1 (stereo not given) 7.08%, CCOc1ccc(C2c3[nH]c4ccccc4c3CCN2C(=O)CCC2CCCC2)cc1 (stereo not given) -1.58%, CN1CCC(=C2c3ccccc3CC(=O)c3sccc32)CC1 -1.2%, CC(=O)C(Sc1nc(-c2ccccc2Cl)nc2c1c(=O)n(C)c(=O)n2C)C(=O)N(C)C (stereo not given) -8.61%, COc1ccc(OC)c(CNc2ncc(-c3ccc(Cl)cc3)n2C)c1 0.707%, Cc1cccc(C)c1NC(=O)c1cc2sccc2n1Cc1ccc(F)cc1 2.46%, CCN(Cc1ccccc1)S(=O)(=O)c1ccc(F)c(C(=O)Nc2ccc(C(C)C)cc2)c1 1.23%, CCC(=O)N1CCc2cc(S(=O)(=O)NC(CC(C)C)C(=O)NCc3cccc(OC)c3)ccc21 (stereo not given) 5.68%, Cc1ccc(CNC(=O)CCCn2nc(C)n3c(cc4sccc43)c2=O)cc1 -16.6%, Cc1ccc(NC(=O)NCc2c(-n3cccc3)sc3c2CCCC3)c(Cl)c1 -14.2%, COc1cccc(C(=O)c2cn(CC(=O)Nc3ccc4c(c3)OCCO4)c3nc(C)ccc3c2=O)c1 2.71%, CC(=O)c1ccc(S(=O)(=O)Nc2cccc(-c3ccc(N4CCCC4)nn3)c2)cc1 4.23%, Cc1ccc(Sc2c(C)nn(-c3ccccc3)c2OC(=O)CC(C)C)cc1 -0.537%, Cc1ccccc1CN1C(=O)c2ccccc2Sc2ccc(C(=O)NCCCN3CCOCC3)cc21 -6.77%, COc1ccccc1N1CCN(CC(O)COc2cccc3ccccc23)CC1 (stereo not given) 8%, CC(=O)c1ccc(NC(=O)c2nn(C)c3c2COc2ccccc2-3)cc1 -4.15%, Cc1ccc(NC(=O)c2sc3nc[nH]c(=O)c3c2C)cc1C -2.73%, O=C(NCCc1ccc(Cl)cc1)c1ccc2c(c1)N(Cc1ccccc1)C(=O)CS2 8.54%, O=c1c2ccccc2nc(-c2ccc(Cl)cc2)n1CCCCOc1ccc(F)cc1 6.65%, CC(Oc1ccccc1F)C(=O)N1CCC(c2nc3ccccc3o2)CC1 (stereo not given) -1.11%, CCc1cc2c(-c3ccccc3)cc(=O)oc2c2c1OCN(Cc1ccc(C)cc1)C2 -5.59%, CCOC(=O)c1c(NC(=O)c2cc(-c3ccc(Br)cc3)on2)sc(C)c1C 3%, Cc1ccc(N(CC(=O)NCc2ccc(OC(C)C)cc2)S(=O)(=O)N(C)C)cc1 2.58%, CCOc1ccc(CN2C(=O)c3ccccc3Sc3ccc(C(=O)NC4CCC(C)CC4)cc32)cc1 (stereo not given) 48.1%, COC(=O)c1ccc(NC(=O)CCOc2ccccc2)cc1 -3.39%, Cc1cccc(NC(=O)Cn2c(=O)oc3cc(S(=O)(=O)N4CCCCCC4)ccc32)c1 -25.4%, COc1ccc(-c2noc(CSc3nnc(-c4ccncc4)n3-c3ccc(OC)cc3)n2)cc1 -9.02%, O=C(NC1CC(=O)N(c2ccc(F)cc2)C1)C(c1ccccc1)c1ccccc1 (stereo not given) -2.31%, Cn1cc(C(=O)N2CCN(c3ccccc3)CC2)c(=O)c2cc(S(=O)(=O)N3CCCC3)ccc21 1.04%, COC(=O)c1ccc(NC(=O)c2cc3cc4ccc(OC)c(Cl)c4nc3s2)cc1 6.91%, COc1ccc(CNC(=O)CCS(=O)(=O)c2cc3c4c(c2)CCN4C(=O)CC3)cc1 4.92%, CCCC(=O)Nc1nnc(S(=O)(=O)N(C)c2ccccc2)s1 4.73%, COc1ccc(S(=O)(=O)N(CCc2ccccc2)CC(=O)NCc2ccc(C)cc2)cc1 3.13%, CCOc1ccc(-n2nc3ccc(NC(=O)COc4ccccc4C)cc3n2)cc1 5.04%, O=C(Nc1c(O)c2ccccc2oc1=O)c1ccccc1Cl -7.9%, COCCNC(=O)c1ccc(NC(=O)N2CCCCc3ccccc32)cc1 6.37%, O=C(NCC(c1cccnc1)N1CCN(Cc2ccccc2)CC1)C(=O)Nc1ccc(F)cc1 (stereo not given) -11.7%, COc1cccc(CNC(=O)C2CCCN(c3nnc(-n4c(C)ccc4C)s3)C2)c1 (stereo not given) 38.5%, CN1CCN(c2cc(C(=O)Nc3ccc4c(c3)-c3c(c(C(N)=O)nn3-c3ccc(F)cc3)CC4)c(Cl)cn2)CC1 -25.2%, Cc1cc(C)c(S(=O)(=O)Nc2ccc(-c3ccc(N4CCCCC4)nn3)cc2)cc1C -6.01%, CC1=C[C@@H]2[C@@H]([C@@H](O)C[C@@]3(C)[C@H]2C[C@@H](C)[C@]3(O)C(=O)CO)[C@@]2(C)Cc3cnn(-c4ccccc4)c3C=C12 -18.2%, COC(=O)c1ccccc1NC(=O)CSc1c2c(nc3ccc(Cl)cc13)CCCC2 5.01%, CC(C)c1ccc(NC(=O)CN(C)S(=O)(=O)c2ccc3c(c2)n(C)c(=O)c(=O)n3C)cc1 -12.1%, CCc1ccc(CNC(=O)c2cnc3sc(N4CCCCCC4)nn3c2=O)cc1 -23.2%, CCC1CCCCN1C(=O)CSc1nc(-c2ccc(OC)cc2)cc(C(F)(F)F)n1 (stereo not given) 9.95%, Cc1ccccc1Cn1c(=O)n(CCCCCC(=O)NCc2ccc3c(c2)OCO3)c(=O)c2sccc21 -5.37%, O=C(Cn1ncc2c3ccccc3n(Cc3cccc(Cl)c3)c2c1=O)NCCC1=CCCCC1 8.16%, CCOC(=O)c1ccc(NC(=O)CN2C(=O)c3cccnc3Sc3ccccc32)cc1 4.7%, CCOc1ccc(C(=O)NCCc2sc(-c3ccc(F)cc3)nc2C)cc1 -0.898%, Cn1c(SCc2ccccc2Cl)nc(=O)c2c1NC(=O)CC2c1cc(F)ccc1F (stereo not given) 5.45%, COc1ccc(NC(=O)CSc2ncc3c(n2)-c2ccccc2N(C)S3(=O)=O)cc1Cl -14.5%, CCN(CC)c1ccc(CNS(=O)(=O)c2cc3c(cc2C)NC(=O)CO3)cc1 -2.04%, CCOC(=O)c1ccccc1NC(=O)Cn1c(=O)n(-c2ccc(CC)cc2)c(=O)c2c(C)c(C(=O)N(C)C)sc21 -8.72%, Nc1ncc(S(=O)(=O)Nc2ccc(OC(F)(F)F)cc2)cn1 -4.05%, Cc1ccc(CSc2cn(CCNC(=O)c3cccs3)c3ccccc23)cc1 7.81%, O=C(Nc1ccc(F)c(Cl)c1)C1CCN(S(=O)(=O)c2ccc3c(c2)CCCN3C(=O)C2CCC2)CC1 0.713%, Cc1ccc(N2CC(NC(=O)c3ccccc3Br)CC2=O)cc1 (stereo not given) -0.492%, CC(C)Sc1nc2sc3c(c2c(=O)n1-c1ccccc1)CCCC3 3.66%

outcome, inactive:
CCCCN(c1ccccc1)S(=O)(=O)c1cc2c3c(c1)C(C)C(=O)N3CCC2 (stereo not given), O=C(CCc1nnc2n(Cc3ccccc3Cl)c(=O)c3ccccc3n12)Nc1ccccc1, Cc1ccc(COC(=O)c2ccc(-c3nnn(Cc4ccc(C)cc4)n3)cc2)cc1, CCCCN(CC)C(=O)Cn1cc2c(n1)-c1c(oc(C(=O)N3CCCC3)c1C)CC2, Cc1ccc(CNC(=O)c2cn(C)c3ccc(S(=O)(=O)N4CCC(C)CC4)cc3c2=O)cc1, CCOC(=O)c1cccc(NC(=O)NC2COc3ccccc3C2)c1 (stereo not given), COc1cc(NC(=O)C2CCN(S(=O)(=O)c3c(C)noc3/C=C/c3c(C)cc(C)cc3C)CC2)cc(OC)c1, CCOc1ccc(CC(=O)NCc2ccc3c(c2)CCN3C(=O)c2ccc(F)cc2)cc1OCC, O=C(NCCCc1ccccc1)c1ccc2c(c1)sc1nc(-c3ccc(F)cc3)cn12, CCn1c(SCC(=O)Nc2cc(Cl)ccc2OC)nc2c([nH]c3ccccc32)c1=O, Cc1ccc(NC(=O)CN2C(=O)c3ccccc3Sc3ncccc32)c(C)c1, COc1ccccc1NC(=O)C1=C(C)Nc2nc(SCc3ccccc3)nn2C1c1cccs1 (stereo not given), CCOc1ccccc1NC(=O)N1CCC(N2CCN(Cc3ccccc3)C(=O)C2=O)CC1, CCOC(=O)c1ccccc1NC(=O)CCc1c(C)nc2c(c1C)c(=O)n(C)c(=O)n2C, Cc1ccc(Cn2c(Cc3ccccc3)nc3ccccc32)cc1, O=C(C1CC1)N1CCc2cc(Br)cc(S(=O)(=O)Nc3ccc(C(F)(F)F)cc3)c21, COc1ccc(NC(=O)C(=O)NCCc2csc3nc(-c4ccccc4C)nn23)cc1, CCOc1ccc(CNC(=O)CN2C(=O)CSc3c2c(C)nn3-c2ccccc2)cc1, COc1ccccc1CCNC(=O)C1CCN(c2nc3ccccc3nc2C(F)(F)F)CC1, CCn1cnc2cc(NCc3ccc(N(C)C)cc3)ccc21, CCOC(=O)N1CCN(CCC(=O)Nc2cc(C)ccc2C)CC1, CCOc1ccc(C(=O)Nc2ccc3nc(SCC(=O)N4CCCC4)sc3c2)cc1, CCn1cc2nc(SCC(=O)Nc3cccc(Cl)c3C)n(Cc3ccc(Cl)cc3)c(=O)c2n1, COc1ccc(Nc2ncc(C(=O)N3CCN(c4ccccc4OC)CC3)c3ccccc23)cc1, CCOc1ccc(NC(=O)Nc2c[nH]c(=O)[nH]c2=O)cc1, CCOc1ccccc1CNC(=O)c1ccc2c(c1)nc1n2CCC(C)C1 (stereo not given), CC(=O)c1ccc(N2C(=O)Nc3ccccc3S2(=O)=O)cc1, CCC(=O)Nc1cccc(OCc2cc(=O)n3cc(C)ccc3n2)c1
